Experiment [1] concerns human lung cancer cells.
The subject of experiment [2] is human lung cancer cells. Description: cells. As to conditions: 24 h, read-out: Inhibition of Cell Proliferation, %.

Read-outs that look alike come from different tables or passages of the source.

Consider `O=C(O)C(=O)CBr` [3-Bromopyruvate, 3-bromopyruvate], for which the “Inhibition of Cell Proliferation, %” value in experiment [1] (50 µM) turned out to be 92.5%.

In the case of `O=c1[nH]cc(F)c(=O)[nH]1` [5-Fluorouracil], the inhibition at 50 µM in experiment [2] was determined as 17.8%.

`N.N.O=C([O-])C1(C(=O)[O-])CCC1.[Pt+2]` [Carboplatin]: in experiment [1] (Anticancer agent at 50 μM, for 24 hrs), the “Inhibition of Cell Proliferation, %” value came to 4.5%.

Regarding `O=P1(N(CCCl)CCCl)NCCCO1` (stereo not shown) [Cyclophosphamide], the inhibition at 50 µM in experiment [2] was 0%.

`COc1cccc2c1C(=O)c1c(O)c3c(c(O)c1C2=O)C[C@@](O)(C(=O)CO)C[C@@H]3O[C@H]1C[C@H](N)[C@H](O)[C@H](C)O1` [Doxorubicin]: the inhibition at 50 µM in experiment [2] was found to be 39.6%.

Take `CN(Cc1cnc2nc(N)nc(N)c2n1)c1ccc(C(=O)N[C@@H](CCC(=O)O)C(=O)O)cc1` [Methotrexate]: the inhibition at 50 µM in experiment [2] worked out at 28%.

Take `CC(=O)O[C@H]1C(=O)[C@@]2(C)[C@H]([C@H](OC(=O)c3ccccc3)[C@]3(O)C[C@H](OC(=O)[C@H](O)[C@@H](NC(=O)c4ccccc4)c4ccccc4)C(C)=C1C3(C)C)[C@]1(OC(C)=O)CO[C@@H]1C[C@@H]2O` [Paclitaxel]: in experiment [2], the inhibition at 50 µM was determined as 0%.

The values are drawn from patent US11077078B2, “Compositions and methods for the treatment of cancer” (KoDiscovery, LLC, priority 2006, dated 2021).
